Data from patent publication EP0243717A1 (priority 1986, dated 1987).
≈ marks a conversion by molar mass, not a printed value. Read-outs that look alike come from different tables or passages of the source.

Key:
[1] = system: Treponema hyodysenteriae DJ70 P-3; conditions: for Lesion: mice with lesion/mice; for Curative ratios: Table 2
Procedure: Groups of seven-week old mice (CF-1) are orally infected with Treponema hyodensenteriae DJ 70 P-3 as the test pathogen, each group consisting of five mice. The mice are fasted beginning one day before the bacterial infection, and hygromycin A is administered to them in drinking water at the dosages of 60, 30, 15, 7.5, 3.7, 1.8 and 0.9 µg/ml. The bacterial infection is effected on the first and second days after fasting. The drug is administered through drinking water for six consecutive days after the first bacterial infection. On the sixth day of the administration the test animals are necropsied, and presence of Treponema hyodysenteriae in the contents of their digestive organs are determined by three days' cultivation in blood agar. As the positive control, Lincomycin (60-3.7 pg/ml) Dynamutilin, lankacidin C and olaquindox (60-7.5 µg/ml, respectively) are administered through drinking water at the concentrations indicated. As the negative control, untreated group allowed to freely drink water.

[2] = system: A. laidlawii KB 175 (Bm-1); experiment: microbe, parasite or virus in culture; conditions: Medium D
Source text: (§1) For reference, the minimum growth inhibition concentrations (MIC) to various bacteria of above five drugs and Lankacidin C are shown in Table 3.

[3] = system: Acholeplasma laidlawii KB 174 (PG-8); experiment: microbe, parasite or virus in culture; conditions: Medium D
Source text: as §1

Aspergillus niger KF-105 = experiment: microbe, parasite or virus in culture; conditions: Medium E
Source text: as §1

[4] = system: B. cereus KB 143 (IFO 3001); experiment: microbe, parasite or virus in culture; conditions: Medium A
Source text: as §1

[5] = system: B. megaterium KB 144 (IFO 12108); experiment: microbe, parasite or virus in culture; conditions: Medium A
Source text: as §1

[6] = system: Bacillus subtilis KB 211 (ATCC 6633); experiment: microbe, parasite or virus in culture; conditions: Medium A
Source text: as §1

[7] = system: C. difficile KB 258 (ATCC 9689); experiment: microbe, parasite or virus in culture; conditions: Medium B
Source text: as §1

Candida albicans KF-1 = experiment: microbe, parasite or virus in culture; conditions: Medium E
Source text: as §1

[8] = system: E. coli KB 198 (ML^r,LCM^s); experiment: microbe, parasite or virus in culture; conditions: Medium A
Source text: as §1

[9] = system: Escherichia coli KB 213 (NIHJ); experiment: microbe, parasite or virus in culture; conditions: Medium A
Source text: as §1

[10] = system: Fusobacterium varium KB 234 (ATCC 8501); experiment: microbe, parasite or virus in culture; conditions: Medium B
Source text: as §1

[11] = system: Haemophilus pleuropneumoniae KB 282; experiment: microbe, parasite or virus in culture
Source text: as §1

[12] = system: Klebsiella pneumoniae KB 214 (IFO 10031); experiment: microbe, parasite or virus in culture; conditions: Medium A
Source text: as §1

[13] = system: M. gallisepticum KB 171 (S-6); experiment: microbe, parasite or virus in culture; conditions: Medium D
Source text: as §1

[14] = system: M. gallisepticum KB 172 (333-P); experiment: microbe, parasite or virus in culture; conditions: Medium D
Source text: as §1

M. pneumoniae KB-173 = experiment: microbe, parasite or virus in culture; conditions: Medium D
Source text: as §1

[15] = system: Micrococcus luteus KB 212 (ATCC 9341); experiment: microbe, parasite or virus in culture; conditions: Medium A
Source text: as §1

[16] = system: Mucor racemosus KF 223 (IFO 4581); experiment: microbe, parasite or virus in culture; conditions: Medium E
Source text: as §1

[17] = system: Mycobacterium smegmatis KB 42 (ATCC 607); experiment: microbe, parasite or virus in culture; conditions: Medium A
Source text: as §1

[18] = system: Mycoplasma gallisepticum KB 170 (KP-13); experiment: microbe, parasite or virus in culture; conditions: Medium D
Source text: as §1

[19] = system: Penicillium herquei KE 227 (IFO 4647); experiment: microbe, parasite or virus in culture; conditions: Medium E
Source text: as §1

[20] = system: Proteus vulgaris KB 127 (IFO 3167); experiment: microbe, parasite or virus in culture; conditions: Medium A
Source text: as §1

[21] = system: Pseudomonas aeruginosa KB 115 (IFO 3080); experiment: microbe, parasite or virus in culture; conditions: Medium A
Source text: as §1

[22] = system: S. aureus KB 199 (ML^r,TC^r); experiment: microbe, parasite or virus in culture; conditions: Medium A
Source text: as §1

S. aureus KB 283 (MRSA) = experiment: microbe, parasite or virus in culture; conditions: Medium A
Source text: as §1

S. aureus KB 285 (MRSA) = experiment: microbe, parasite or virus in culture; conditions: Medium A
Source text: as §1

[23] = system: S. aureus KB 34 (FDA 209p); experiment: microbe, parasite or virus in culture; conditions: Medium A
Source text: as §1

[24] = system: S. cerevisiae KF 237 (ATCC 9763); experiment: microbe, parasite or virus in culture; conditions: Medium E
Source text: as §1

Saccharomyces sake KF 26 = experiment: microbe, parasite or virus in culture; conditions: Medium E
Source text: as §1

[25] = system: Staphylococcus aureus KB 210 (ATCC 6538p); experiment: microbe, parasite or virus in culture; conditions: Medium A
Source text: as §1

[26] = system: Treponema hyodysenteriae B 78; experiment: microbe, parasite or virus in culture; conditions: Medium F
Source text: as §1

[27] = system: Treponema hyodysenteriae DJ 70 P-3; experiment: microbe, parasite or virus in culture; conditions: Medium F
Source text: as §1

[28] = system: Trichophyton interdigitale KF 62; experiment: microbe, parasite or virus in culture; conditions: Medium E
Source text: as §1

[29] = system: pasteurella hemolytica KB 281; experiment: microbe, parasite or virus in culture
Source text: as §1

[30] = Dosage 0.9 μg/mℓ in drinking water
[31] = Dosage 1.8 μg/mℓ in drinking water
[32] = Dosage 3.7 μg/mℓ in drinking water
[33] = Dosage 7.5 μg/mℓ in drinking water
[34] = Dosage 15 μg/mℓ in drinking water
[35] = Dosage 30 μg/mℓ in drinking water
[36] = Dosage 60 μg/mℓ in drinking water

SMILES: CC(=O)[C@H]1O[C@@H](Oc2ccc(/C=C(\C)C(=O)N[C@@H]3[C@H](O)[C@@H](O)[C@H]4OCO[C@H]4[C@@H]3O)cc2O)[C@@H](O)[C@@H]1O [Hygromycin A, hygromycin A]
- Noninfective (%) [1, 30]: 40%
- Presence of T. hyo. 1st day [1, 30]: 0/5
- Presence of T. hyo. 3rd day [1, 30]: 3/5
- Lesion [1, 30]: 0/5
- Noninfective (%) [1, 31]: 100%
- Presence of T. hyo. 1st day [1, 31]: 0/5
- Presence of T. hyo. 3rd day [1, 31]: 0/5
- Lesion [1, 31]: 0/5
- Noninfective (%) [1, 32]: 100%
- Presence of T. hyo. 1st day [1, 32]: 0/5
- Presence of T. hyo. 3rd day [1, 32]: 0/5
- Lesion [1, 32]: 0/5
- Noninfective (%) [1, 33]: 100%
- Presence of T. hyo. 1st day [1, 33]: 0/5
- Presence of T. hyo. 3rd day [1, 33]: 0/5
- Lesion [1, 33]: 0/5
- Noninfective (%) [1, 34]: 100%
- Presence of T. hyo. 1st day [1, 34]: 0/5
- Presence of T. hyo. 3rd day [1, 34]: 0/5
- Lesion [1, 34]: 0/5
- Noninfective (%) [1, 35]: 100%
- Presence of T. hyo. 1st day [1, 35]: 0/5
- Presence of T. hyo. 3rd day [1, 35]: 0/5
- Lesion [1, 35]: 0/5
- Noninfective (%) [1, 36]: 100%
- Presence of T. hyo. 1st day [1, 36]: 0/5
- Presence of T. hyo. 3rd day [1, 36]: 0/5
- Lesion [1, 36]: 0/5
- ED50 ([1]; Table 1, CF-1 mice, administration through drinking water): 1.1 µg/mL (≈ 2.15 µM)
- Curative ratios ([1]; Dosage 0.9 μg/mℓ): 40%
- Curative ratios ([1]; Dosage 1.8 μg/mℓ): 100%
- Curative ratios ([1]; Dosage 3.7 μg/mℓ): 100%
- Curative ratios ([1]; Dosage 7.5 μg/mℓ): 100%
- Curative ratios ([1]; Dosage 15 μg/mℓ): 100%
- Curative ratios ([1]; Dosage 30 μg/mℓ): 100%
- Curative ratios ([1]; Dosage 60 μg/mℓ): 100%
- Fifty-percent effective dosages (ED50) ([1]; list after b26, CF-1 mice, administration through drinking water): 1.1 µg/mL
- MIC [2]: 0.78 µg/mL (≈ 1.52 µM)
- MIC [3]: 0.78 µg/mL (≈ 1.52 µM)
- MIC (Aspergillus niger KF-105): >100 µg/mL
- MIC [4]: >100 µg/mL
- MIC [5]: 100 µg/mL (≈ 196 µM)
- MIC [6]: >100 µg/mL
- MIC [7]: 25 µg/mL (≈ 48.9 µM)
- MIC (Candida albicans KF-1): >100 µg/mL
- MIC [8]: 12.5 µg/mL (≈ 24.4 µM)
- MIC [9]: 100 µg/mL (≈ 196 µM)
- MIC [10]: 25 µg/mL (≈ 48.9 µM)
- MIC ([11]; Medium C): 12.5 µg/mL (≈ 24.4 µM)
- effective against Haemophilus pleuropneumoniae KB282 ([11]; in our screening systems): effective
- MIC [12]: 50 µg/mL (≈ 97.8 µM)
- MIC [13]: 0.78 µg/mL (≈ 1.52 µM)
- MIC [14]: 1.56 µg/mL (≈ 3.05 µM)
- MIC (M. pneumoniae KB-173): 0.78 µg/mL (≈ 1.52 µM)
- MIC [15]: 25 µg/mL (≈ 48.9 µM)
- MIC [16]: >100 µg/mL
- MIC [17]: >100 µg/mL
- MIC [18]: 0.78 µg/mL (≈ 1.52 µM)
- MIC [19]: >100 µg/mL
- MIC [20]: 50 µg/mL (≈ 97.8 µM)
- MIC [21]: >100 µg/mL
- MIC [22]: 50 µg/mL (≈ 97.8 µM)
- MIC (S. aureus KB 283 (MRSA)): 50 µg/mL (≈ 97.8 µM)
- MIC (S. aureus KB 285 (MRSA)): 50 µg/mL (≈ 97.8 µM)
- MIC [23]: 50 µg/mL (≈ 97.8 µM)
- MIC [24]: >100 µg/mL
- MIC (Saccharomyces sake KF 26): >100 µg/mL
- MIC [25]: 50 µg/mL (≈ 97.8 µM)
- MIC [26]: 6.25 µg/mL (≈ 12.2 µM)
- MIC [27]: 3.12 µg/mL (≈ 6.1 µM)
- MIC [28]: >100 µg/mL
- MIC ([29]; Medium C): 25 µg/mL (≈ 48.9 µM)
- effective against Pasteurella haemolytica ([29]; in our screening systems): effective
